The source of these data is PubChem BioAssay AID1240 (Sanford-Burnham Center for Chemical Genomics, 2008).

The campaign covered roughly 50,000 compounds. About 800 (1.6%) showed an effect of 50% or more. The list shows a part of the results.

The target of the test is Bcl-2-like protein 10 (Homo sapiens) (UniProt Q9HD36). Nature of the test: TR3 peptide-Bcl-B binding displacers, biochemical primary FP assay, phenotype converters (AID 1240).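 Note: 0% = Bcl-B with tracer peptide and DMSO and 100% = tracer peptide lacking Bcl-B.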 As to conditions: GST-Bcl-B / FITC-TR3 peptide fluorescence polarization; stronger effect = higher value; compound at 3.75 mg/L.
UniProt Q9HD36, sequence (Q9HD36 whole entry, looked up): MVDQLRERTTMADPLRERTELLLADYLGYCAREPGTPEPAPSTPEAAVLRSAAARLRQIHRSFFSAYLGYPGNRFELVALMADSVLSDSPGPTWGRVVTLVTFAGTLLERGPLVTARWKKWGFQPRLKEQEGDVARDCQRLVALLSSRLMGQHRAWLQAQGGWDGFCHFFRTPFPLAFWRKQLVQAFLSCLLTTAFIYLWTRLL
With `CCOc1ccc(NC(=S)NC(NC(=O)c2ccccc2)C(Cl)(Cl)Cl)cc1` (stereo unspecified), the displacement is -7.8%. Consider `Cc1cc(C)cc(OCCCNCCO)c1`, for which the displacement was determined as 0.6%.

In the case of `Cc1ccc(C(O)(c2ccccc2)c2nc3ccccc3n2C(C)C)cc1` (stereo unspecified), the displacement was -9.3%. As to `Cc1ccc(OCCNc2cc(Cl)ccc2[N+](=O)[O-])cc1C`, the displacement is 0.6%. For the compound `CC12OC3(CCCCC3)C(C)(OC13CCCCC3)O2`, the displacement was 3.7%. Regarding `CCOC(=O)C1=C(c2ccccc2)OC(N(C)C)C(c2ccccc2)=C1` (stereo unspecified), the displacement turned out to be 1.8%. With `O=C(N/N=C/c1ccc([N+](=O)[O-])cc1)c1cc(-c2ccc3ccccc3c2)n[nH]1`, the displacement was -5.3%.

Take `COc1cc(C=C2C(=O)N(C)C(=O)N(C)C2=O)ccc1OCc1ccc(C(=O)O)cc1`: the displacement is -8.7%.

For the compound `COc1ccccc1CNC1CCCCC1OC` (stereo unspecified), the displacement is -1.2%. Next, `Cc1nc(-c2ccc(NC(=O)c3ccccc3)cc2)cs1`: 1%; `O=C(CSc1nc2ccccc2o1)c1cccc([N+](=O)[O-])c1`: 15.4%; `COc1ccc(C2CC(=O)C3=C(C2)Nc2ccccc2NC3c2cccc(OC)c2OC)cc1OC` (stereo unspecified): -3.7%. Turning to `O=C(O)CC1S/C(=N/N=C2/C(=O)Nc3ccccc32)N(c2ccc(O)cc2)C1=O` (stereo unspecified), the displacement came to 13.7%.

`CCCCOC(=O)c1cccc(NC(=O)c2cncc(Br)c2)c1`: the displacement worked out at 11.3%. For `O=C(COc1ccccc1)Nc1ccc(-c2nc3cc(Cl)ccc3o2)cc1`, the displacement was 16.2%. As for `CN(C)CCNC(=O)c1cc(Cl)ccc1Cl`, the displacement is -10.4%. Next, `Cc1cc(OCc2ccc([N+](=O)[O-])cc2)c2c(-c3ccccc3)cc(=O)oc2c1`: -4.9%; `CCOC(=O)C(CC)Oc1ccc2c(C(F)(F)F)cc(=O)oc2c1` (stereo unspecified): -2%; `COC(=O)c1ccc(C(=O)OC)c(NC(=O)/C=C/c2ccco2)c1`: 63.5%. `O=C1CSC(=S)N1N1C(=O)C2C3C=CC(C3)C2C1=O` (stereo unspecified): the displacement was -0.8%. `O=C1C2=C(Nc3ccccc3SC2c2ccco2)c2ccccc21` (stereo unspecified): the displacement worked out at 1.3%.

For the compound `CN1CCc2c(sc(N)c2C(=O)OC(C)(C)C)C1`, the displacement turned out to be 0.1%. For `O=C(Nc1ccc(S(=O)(=O)Nc2ncccn2)cc1)c1cc([N+](=O)[O-])ccc1Cl`, the displacement was -0.7%.

In the case of `CCOC(=O)c1ccc(NC(=O)c2ccc(OCC)c(Cl)c2)cc1`, the displacement was -7.9%. Consider `CCOC(=O)c1c(-c2ccc(C)cc2)csc1NC(=S)NC(C)=O`, for which the displacement turned out to be 1.4%.

`O=C(O)C1NCCc2ccccc21` (stereo unspecified): the displacement was -14.6%. As for `CC(C)OC(=O)c1c(-c2ccc(Cl)cc2Cl)csc1NC(=O)C1C2CCC(C2)C1C(=O)O` (stereo unspecified), the displacement was -0.4%.

Turning to `Cc1cc(F)c(F)cc1C(=O)N1CCCC1`, the displacement came to 0%.

For `Oc1ccc(/C=N/Nc2nc(N3CCCC3)nc(N3CCCC3)n2)cc1O`, the displacement amounted to 3.8%. For `C=CCN1C(=O)/C(=C\c2cc(Cl)cc(Br)c2O)SC1=S`, the displacement was 13.1%. The value for `CC(=O)Nc1ccc(Nc2c([N+](=O)[O-])c(=O)n(C)c3ccccc23)cc1` was -0.8%; that for `CCCCNCCCCCOc1cccc(C)c1C` was 7.1%. For the compound `CC1=C(C(=O)Nc2ccccc2)C(c2cccs2)C(C#N)=C(SCC(=O)c2ccccc2)N1` (stereo unspecified), the displacement was 4.2%. Take `N/C(=N\OC(=O)c1ccccc1I)c1ccc(Cl)cc1`: the displacement is 2.2%. Turning to `C=CCN(c1ccc(C(=O)O)cc1)S(=O)(=O)/C=C/c1ccccc1`, the displacement is -15%.

Take `O=C(O)/C=C/C(=O)Nc1ccccc1-c1ccccc1`: the displacement is -5.3%. Turning to `CCOC(=O)c1ccc(N=Cc2c(O)n(C)c(=O)[nH]c2=O)cc1`, the displacement came to 16.2%.

In the case of `CC(=O)Nc1ccc(S(=O)(=O)Nc2ccc(N(C)C(C)=O)cc2)cc1`, the displacement was -10.1%. Consider `Cc1nc2ccccc2c(=O)n1/N=C/c1c(O)ccc2ccccc12`, for which the displacement is 9%. As for `CC(NC=O)c1ccc(Br)cc1` (stereo unspecified), the displacement was determined as 5.3%.

For `COc1ccc(Br)cc1CN1CCN(C2CCCC2)CC1`, the displacement was 4.3%. Take `COc1cccc2c1CC/C(=C\c1cccc(I)c1)C2=O`: the displacement came out at 13.7%.

As for `O=C(NC(NC(=S)Nc1ccc(F)cc1)C(Cl)(Cl)Cl)c1ccc(F)cc1` (stereo unspecified), the displacement came to 10.3%. In the case of `Cc1cc(C)c2nc3s/c(=C\c4cccc(Br)c4)c(=O)n3c2c1`, the displacement turned out to be 3%. Regarding `O=Cc1ccc(-c2ccc(F)cc2F)o1`, the displacement was -1.5%. On to `O=C(NN=C(/C=C/c1ccccc1)/C=C/c1ccccc1)c1cccnc1`, for which the displacement is -5.3%.

As to `Cc1onc(-c2ccccc2)c1C(=O)N1CCc2ccccc21`, the displacement was -5.4%. In the case of `CCCC(=O)Nc1ccc(NC(=O)c2cc(Br)ccc2I)cc1`, the displacement was 0.9%. With `COc1cc(NC(=O)c2c(-c3ccccc3Cl)noc2C)c(OC)cc1Cl`, the displacement amounted to 6.9%. Next, `Nn1c(-c2ccco2)nc2ccccc2c1=O`: 2.4%; `COc1ccc(N(CC(=O)Nc2ccccc2F)S(=O)(=O)c2ccccc2[N+](=O)[O-])c(OC)c1`: -17.5%. Turning to `O=C(c1cnn2c(C(F)(F)F)cc(-c3cccs3)nc12)N1CCOCC1`, the displacement is -1%.

Take `O=C1CCC(=O)N1c1cccc2c(N3C(=O)CCC3=O)cccc12`: the displacement is -0.3%. With `Cc1c(NC(=O)CCN2C(=O)S/C(=C\c3ccccc3)C2=O)c(=O)n(-c2ccccc2)n1C`, the displacement came to 1.1%. In the case of `COc1cc(C=Nc2ccc(Cl)c([N+](=O)[O-])c2)ccc1OC(C)=O`, the displacement was determined as 4.8%. For `Cc1ccc(N2C(=O)NC(=O)/C(=C\c3ccc(N4CCCCC4)o3)C2=O)cc1`, the displacement was -139%.

On to `COc1ccccc1C1CN(c2ccccc2)N=C1c1cccs1` (stereo unspecified), for which the displacement was -5.4%. Consider `O=C(CSc1ncn[nH]1)Nc1ccc(F)cc1`, for which the displacement is -7%.

As for `CCOC(=O)C1(C)C=C(Nc2cccc([N+](=O)[O-])c2)C(=O)N1c1ccccc1` (stereo unspecified), the displacement was 3.6%. Take `COc1cc(NC(=O)c2cccc(C)c2)c(C(=O)O)cc1OC`: the displacement is -2.1%.

In the case of `O=C1c2ccccc2NC(c2ccc(O)cc2)N1c1ccc(Cl)cc1` (stereo unspecified), the displacement was determined as 17.4%.

Regarding `O=[N+]([O-])c1cccc(N/C(=N/S(=O)(=O)c2ccc(Cl)cc2)c2ccccc2)c1`, the displacement came to 13.2%.

In the case of `Cc1c(OCC(=O)c2ccc(Cl)cc2)ccc2c3c(c(=O)oc12)CCC3`, the displacement came to 10.5%. Turning to `CCOC(=O)Cc1nnc(Nc2cccc(C)c2)c2ccccc12`, the displacement was determined as 24.4%. Turning to `O=[N+]([O-])c1ccc(F)c(NS(=O)(=O)c2ccccc2)c1`, the displacement stood at 7.5%. Take `O=C(CC(c1ccccc1)c1ccccc1)Nc1cccnc1`: the displacement is -3.3%.

Turning to `Cc1ccc(C(=O)Nc2nc(-c3ccc4c(c3)Cc3ccccc3-4)cs2)cc1`, the displacement worked out at 13.8%. The value for `O=S(=O)(NCC1CCCO1)c1ccc(Br)c2ccccc12` (stereo unspecified) was -1.3%; that for `CCOc1ccc(C(=O)Nc2ccc(-c3cc4ccccc4oc3=O)cc2)cc1` was 17.6%. As for `Cc1ccc(NC(=O)CCNS(=O)(=O)c2ccc(C)cc2)cc1`, the displacement is 12.9%. In the case of `COc1ccc(-n2c(SCC(=O)Nc3ccccc3C)nc(O)cc2=O)cc1`, the displacement is -12.6%.
